Results on five molecules are retold here after PubChem BioAssay (NCI).

The structures appear in SMILES notation.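 A five-concentration, 48-hour dose response in 96-well plates underlies each endpoint, interpolated linearly between surrounding concentrations. The concentration for 50% growth inhibition is given as GI50. At the TGI there is no net growth.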

The subject of this assay is NCI-H322M lung. The experiment in a line: inhibition of tumour cell growth, NCI panel, 48 h.
Regarding `CCCCCCNC(=O)Oc1ccc(/C(=C(/C)c2ccc(Cl)cc2)c2ccc(OCCN3CCCC3)cc2)cc1`, the GI50 is 2.48 µM and the TGI is 9.02 µM.

In the case of `CCN(CC)S(=O)(=O)c1ccc(-c2nc(C(Cl)Cl)nc3cc(-c4ccc(F)cc4)nn23)cc1`, the GI50 is 2.76 µM and the TGI was found to be 10.5 µM.

On to `CCN(CC)c1ccc2c(c1)Oc1nc(N)c(C#N)c(N)c1C2Sc1ccc(F)cc1` (stereo not given), for which the GI50 is 1.61 µM and the TGI is 2.97 µM.

On to `FC(F)(F)c1cc(Br)cc(-c2cc(-c3ccc4c(c3)OCCO4)[nH]n2)c1`, for which the GI50 is 0.62 µM and the TGI is over 100 µM.

Turning to `COc1ccc(C(C)=C(c2ccc(OCCN(C)C)cc2)c2ccc(OCCN(C)C)cc2)cc1`, the GI50 was 1.97 µM and the TGI was 5.49 µM.
